Assay results from the supplement of paper PMC7826260.
The other results are listed elsewhere or left out. One pool of 16,384 single-stranded DNAs met each Rep nickase domain in vitro at 3 µM enzyme and 37 °C for 1 h; the strands have 90 letters, of which the middle is given. Values are log2 of uncut reads against the no-enzyme pool; uncut sequences lie near 0, cut ones below; no hit call is given. Because reads are shares of a total, they shift together; uncut strands gain when others are lost, and binding without cutting may add a little.

Columns and labels:
Experiment in all cases: uncleaved DNA left, log2 of reads against the no-enzyme library (log2 ratio); higher = less cleavage (more negative = more Rep cleavage of the k-mer); sequences stand for … in CTCGTCCG…ACCGGAGA
[1] = system: T1, Rep nickase domain of Muscovy duck circovirus
T1 sequence (residues 1-111 of Rep, tag left off): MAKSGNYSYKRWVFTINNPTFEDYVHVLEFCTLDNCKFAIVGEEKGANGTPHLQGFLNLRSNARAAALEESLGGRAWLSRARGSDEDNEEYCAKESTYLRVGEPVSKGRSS
Procedure: (§1)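 A pool of 90-nt single-stranded DNAs with seven random bases just before the constant AC of the nick site (name = the seven bases) was cut by 3 µM recombinant His6-SUMO-tagged Rep nickase domain (300 nM DNA, 50 mM HEPES pH 8.0, 50 mM NaCl, 1 mM MnCl2, 1 h, 37 °C, three replicates). Uncut DNA was amplified and sequenced.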

[2] = system: T2, Rep nickase domain of banana bunchy top virus
T2 sequence (residues 1-94 of Rep, tag left off): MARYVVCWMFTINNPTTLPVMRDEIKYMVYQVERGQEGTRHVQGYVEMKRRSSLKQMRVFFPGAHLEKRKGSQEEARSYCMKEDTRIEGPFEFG
Procedure: as §1

[3] = system: T3, Rep nickase domain of cabbage leaf curl virus
T3 sequence (residues 1-116 of Rep, tag left off): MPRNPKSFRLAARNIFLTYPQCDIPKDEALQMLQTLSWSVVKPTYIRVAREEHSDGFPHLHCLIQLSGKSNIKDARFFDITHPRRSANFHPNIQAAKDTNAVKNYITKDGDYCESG
Procedure: as §1

[4] = system: T4, Rep nickase domain of chickpea chlorotic dwarf virus
T4 sequence (residues 1-124 of Rep, tag left off): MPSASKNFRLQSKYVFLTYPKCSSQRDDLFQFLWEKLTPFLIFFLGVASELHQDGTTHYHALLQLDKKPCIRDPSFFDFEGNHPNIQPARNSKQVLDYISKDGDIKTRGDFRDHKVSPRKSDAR
Procedure: as §1

[5] = system: T5, Rep nickase domain of faba bean necrotic yellows virus
T5 sequence (residues 1-98 of Rep, tag left off): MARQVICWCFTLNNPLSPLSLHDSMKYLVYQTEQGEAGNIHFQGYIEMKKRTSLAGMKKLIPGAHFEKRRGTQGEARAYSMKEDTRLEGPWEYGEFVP
Procedure: as §1

[6] = system: T6, Rep nickase domain of maize striate mosaic virus
T6 sequence (residues 1-117 of Rep, tag left off): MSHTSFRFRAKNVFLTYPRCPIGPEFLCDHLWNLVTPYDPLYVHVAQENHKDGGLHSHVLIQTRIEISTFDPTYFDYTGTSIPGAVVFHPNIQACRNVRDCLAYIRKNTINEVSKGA
Procedure: as §1

[7] = system: T7, Rep nickase domain of porcine circovirus 2
T7 sequence (residues 2-116 of Rep, tag left off): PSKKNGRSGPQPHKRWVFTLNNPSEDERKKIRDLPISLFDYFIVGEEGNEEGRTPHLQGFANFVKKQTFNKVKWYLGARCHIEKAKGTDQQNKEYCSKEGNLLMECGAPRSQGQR
Procedure: as §1

[8] = system: T8, Rep nickase domain of tomato golden mosaic virus
T8 sequence (residues 1-124 of Rep, tag left off): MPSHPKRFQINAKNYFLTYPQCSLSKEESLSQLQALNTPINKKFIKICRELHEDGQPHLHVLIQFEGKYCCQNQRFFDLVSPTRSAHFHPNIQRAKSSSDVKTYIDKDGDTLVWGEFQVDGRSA
Procedure: as §1

[9] = system: T9, Rep nickase domain of tomato yellow leaf curl virus
T9 sequence (residues 1-136 of Rep, tag left off): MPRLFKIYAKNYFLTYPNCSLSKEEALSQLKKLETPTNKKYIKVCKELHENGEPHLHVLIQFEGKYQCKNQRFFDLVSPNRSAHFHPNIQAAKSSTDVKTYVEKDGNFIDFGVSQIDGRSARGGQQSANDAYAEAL
Procedure: as §1

[10] = system: T10, Rep nickase domain of wheat dwarf virus
T10 sequence (residues 1-137 of Rep, tag left off): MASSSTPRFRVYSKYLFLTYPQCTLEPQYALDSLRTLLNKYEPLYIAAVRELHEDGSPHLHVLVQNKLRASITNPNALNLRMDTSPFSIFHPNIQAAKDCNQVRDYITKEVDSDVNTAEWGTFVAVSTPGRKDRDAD
Procedure: as §1

Sequence | uncleaved DNA left (log2) [1] | uncleaved DNA left (log2) [2] | uncleaved DNA left (log2) [3] | uncleaved DNA left (log2) [4] | uncleaved DNA left (log2) [5] | uncleaved DNA left (log2) [6] | uncleaved DNA left (log2) [7] | uncleaved DNA left (log2) [8] | uncleaved DNA left (log2) [9] | uncleaved DNA left (log2) [10]
TTTAGTA | -0.0758 | -0.0292 | 0.00535 | -0.746 | -0.0869 | -0.237 | -0.382 | 6.4e-05 | -0.044 | -0.105
CACGCCA | -0.0867 | -0.0424 | -0.174 | -1.92 | 0.0482 | -0.42 | -0.0772 | 0.048 | -0.114 | -0.195
CGATCAC | -0.0517 | 0.0129 | 0.0637 | 0.102 | 0.0233 | -0.211 | 0.0511 | -0.0236 | 0.0455 | 0.08
TGTACCA | 0.0746 | 0.158 | 0.272 | -0.298 | 0.158 | 0.664 | -0.299 | 0.0511 | 0.13 | 0.131
GTCGCGT | -0.0868 | -0.0271 | -0.354 | -0.585 | -0.015 | -0.452 | 0.0318 | -0.0523 | -0.0339 | -0.11
TACACGC | -0.00645 | -0.155 | -0.389 | -0.763 | -0.112 | -0.879 | -0.0164 | -0.127 | -0.0445 | -0.104
TTTTTCA | -0.175 | -0.0135 | 0.192 | -0.735 | 0.0236 | 0.102 | -0.205 | -0.0396 | 0.155 | 0.0528
GTCCAAC | 0.0734 | 0.11 | 0.293 | 0.768 | -0.0907 | 1.61 | 0.0563 | 0.0782 | 0.137 | 0.0864
CAGTTCG | -0.00413 | -0.0401 | -0.93 | 0.25 | -0.0157 | -0.709 | -0.0878 | -0.264 | -0.102 | -0.182
TGCGATG | -0.106 | -0.044 | -0.124 | 0.582 | 0.0218 | 1.59 | -0.0309 | 0.0132 | -0.0402 | 0.0901
GTATCCT | -0.0745 | 0.138 | 0.504 | 1.12 | 0.0366 | 1.94 | 0.0702 | 0.178 | 0.141 | 0.111
GCCTTCC | -0.0817 | -0.0585 | 0.0552 | 0.327 | -0.153 | 0.19 | -0.0528 | -0.16 | -0.0992 | -0.113
AGTTCAG | 0.0801 | 0.114 | -0.56 | -0.405 | 0.0892 | -1.01 | 0.195 | 0.0512 | 0.121 | -0.000997
TAACGTT | -0.137 | -0.193 | -3.57 | -3.95 | 0.00253 | -2.06 | -1.73 | -1.76 | -0.285 | -3.21
CTCGCAC | 0.103 | -0.00865 | -0.163 | -0.366 | 0.134 | -0.831 | 0.045 | -0.0456 | -0.112 | -0.0895
CGATGCT | -1 | 0.00857 | -0.477 | -1.15 | 0.043 | -0.983 | -1.35 | -0.135 | 0.12 | -0.0637
TGACAAT | 0.129 | 0.216 | 0.632 | 0.978 | 0.0466 | 1.66 | 0.138 | 0.154 | 0.189 | 0.227
TTAGTTG | 0.197 | -0.038 | 0.022 | 0.0077 | 0.15 | -0.329 | 0.191 | 0.0776 | 0.0733 | 0.141
CCGAGCC | -0.0201 | 0.026 | 0.173 | 0.432 | 0.00168 | 0.136 | -0.298 | 0.018 | 0.0376 | 0.131
GGACACA | -0.00147 | 0.0504 | 0.82 | 1.75 | -0.0846 | 2.2 | 0.102 | 0.00804 | -0.0924 | 0.237
TGTCCGC | -0.0107 | -0.0773 | 0.0293 | -0.362 | -0.0822 | -0.575 | 0.0265 | -0.077 | 0.123 | 0.0402
ACCGCGT | 0.0555 | -0.137 | -0.467 | 0.294 | -0.0217 | -0.206 | 0.161 | -0.11 | -0.0664 | -0.136
CGCCACT | -0.0606 | 0.0131 | -0.0208 | -1.36 | 0.105 | -0.0848 | -0.21 | -0.109 | -0.0175 | 0.0193
TCTTAGA | 0.0647 | -0.0205 | 0.0596 | -0.113 | 0.0936 | -0.779 | 0.068 | -0.0589 | -0.00951 | -0.06
AACCCTC | -0.00576 | -0.0364 | 0.426 | 0.66 | -0.0489 | 0.479 | -0.23 | -0.0207 | -0.0984 | 0.0129
CGGAGAT | -0.0539 | 0.0793 | 0.173 | 1.23 | -0.0616 | 1.26 | -0.0159 | -0.000599 | -0.0174 | -0.0402
CTTGTCC | 0.00231 | 0.0187 | 0.0247 | -0.735 | 0.0404 | -0.565 | -0.0276 | -0.0666 | 0.0786 | 0.079
CACCGGG | -0.0848 | -0.0829 | 0.301 | 0.492 | -0.178 | 0.179 | 0.00525 | -0.0815 | -0.0788 | -0.17
TCAGGCT | 0.00961 | 0.0277 | 0.25 | 0.573 | -0.00754 | 0.907 | 0.0633 | 0.132 | -0.0933 | 0.0365
CTCAGCA | 0.126 | 0.112 | -0.272 | -0.74 | 0.0459 | -0.803 | -0.0927 | 0.0261 | 0.0751 | 0.076
